The source of these data is the supplement of paper PMC8007513.

The subject of this assay is Trichoderma virens ATCC 9645. The assay is described as follows: growth yield (OD600) relative to untreated control; higher = less growth inhibition. As to conditions: compound concentration: 100 uM. A digest of the protocol:
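A biocide at 200 ng ml^−1 was co-applied to some wells, and library compounds were present in all test wells at 100 μM final. The wells held 100 μl of Trichoderma virens ATCC 9645 spores at 15,000 spores ml^−1 in potato dextrose broth, grown at 30 °C in 96-well plates, with OD600 read at 40 h and 72 h. Results are relative growth against the control without either agent, averaged across duplicate screens.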

Structures can show the parent of a compound that is named as a salt. ± gives the standard error. The whole screen tested about 1,300 compounds, of which about 75 (6%) showed an effect of 50% or more. This is one part of the list.

For `CN(C)CCCN1c2ccccc2CCc2ccc(Cl)cc21` [Clomipramine hydrochloride], the growth yield was found to be 94.5 ± 4% (40 h) and 103 ± 3.9% (72 h).
Regarding `C#C[C@]1(OC(C)=O)CC[C@H]2[C@@H]3CCC4=C[C@@H](OC(C)=O)CC[C@@H]4[C@H]3CC[C@@]21C` [Ethynodiol diacetate], the growth yield runs as follows: (40 h) 84.8%; (72 h) 89 ± 0.94%.
The like results for `Nc1ccc(S(=O)(=O)Nc2ncccn2)cc1` [Sulfadiazine] were, in that order, 97.5 ± 4.5% and 97.6 ± 6.2%.
The like results for `CO[C@@]1(NC(=O)C(C(=O)O)c2ccc(O)cc2)C(=O)N2C(C(=O)O)=C(CSc3nnnn3C)CO[C@@H]21` (stereo not given in full) [Moxalactam disodium salt] were, in that order, 96.1 ± 0.16% and 92.71 ± 0.63%.
On to `C#C[C@]1(O)CC[C@H]2[C@@H]3CCC4=CC(=O)CC[C@@H]4[C@H]3CC[C@@]21C` [Norethindrone], for which the growth yield by setting is: (40 h) 85.5 ± 2.9%; (72 h) 85.9 ± 3.9%.
On to `CC(=O)O[C@]1(C(C)=O)CC[C@H]2[C@@H]3C=C(C)C4=CC(=O)CC[C@@H]4[C@H]3CC[C@@]21C` [Nomegestrol acetate], for which the growth yield is 96.7 ± 5.2% (40 h) and 95.4 ± 5.9% (72 h).
Turning to `NS(=O)(=O)c1cc2c(cc1Cl)N=C(CSCc1ccccc1)NS2(=O)=O` [Benzthiazide], the growth yield was determined as 96.3 ± 2.9% (40 h) and 96.9 ± 4.8% (72 h).
On to `O=C1C(CC[S+]([O-])c2ccccc2)C(=O)N(c2ccccc2)N1c1ccccc1` (stereo not given) [Sulfinpyrazone], for which the growth yield is, setting by setting: (40 h) 102 ± 1.1%; (72 h) 106 ± 2.1%.
Take `CC(=O)Oc1cc(C(F)(F)F)ccc1C(=O)O` [Triflusal]: the growth yield is, setting by setting: (40 h) 94.5 ± 2.4%; (72 h) 91.77 ± 0.32%.
Regarding `O=c1[nH]cc(F)c(=O)[nH]1` [5-fluorouracil], the growth yield by setting is: (40 h) 54.3 ± 5.7%; (72 h) 61.5 ± 4.6%.
For `C[C@]12C=CC(=O)C=C1CC[C@@H]1[C@@H]2[C@@H](O)C[C@@]2(C)[C@H]1CC[C@]2(O)C(=O)CO` [Prednisolone] the same measures were 97.21 ± 0.95% and 102.9 ± 0.52%.
`CC(C)Cc1ccc([C@H](C)C(=O)O)cc1` [S-(+)-ibuprofen]: the growth yield reads like this: (40 h) 101 ± 1.4%; (72 h) 99.7 ± 3.2%.
For `CS(=O)(=O)c1ccc([C@@H](O)[C@@H](CO)NC(=O)C(Cl)Cl)cc1` [Thiamphenicol], the growth yield reads like this: (40 h) 102 ± 4.9%; (72 h) 102 ± 4.2%.
For `O=C(O)Cc1ccccc1Nc1c(Cl)cccc1Cl` [Diclofenac sodium] the same measures were 67.5 ± 3.6% and 81 ± 4.8%.
For the compound `C[C@@H](c1ncncc1F)[C@](O)(Cn1cncn1)c1ccc(F)cc1F` [Voriconazole], the growth yield by setting is: (40 h) 3.02 ± 1.4%; (72 h) 2.41 ± 0.94%.
For `CN1CCN(CCCN2c3ccccc3Sc3ccc(S(=O)(=O)N(C)C)cc32)CC1` [Thioproperazine dimesylate] the same measures were 64.5 ± 11% and 90.7 ± 4.1%.
As for `CCOC(=O)Nc1ccc2c(c1)N(C(=O)CCN1CCOCC1)c1ccccc1S2` [Moricizine hydrochloride], the growth yield turned out to be 111 ± 12% (40 h) and 106 ± 9.9% (72 h).
Consider `COC(=O)[C@H]1[C@H]2C[C@@H]3c4[nH]c5cc(OC)ccc5c4CCN3C[C@H]2C[C@@H](OC(=O)c2cc(OC)c(OC)c(OC)c2)[C@@H]1OC` [Reserpine], for which the growth yield by setting is: (40 h) 107 ± 5.4%; (72 h) 107 ± 2.8%.
For `CC(C)C[C@H](NC(=O)[C@@H](O)[C@H](N)Cc1ccccc1)C(=O)O` [Ubenimex] the same measures were 107 ± 7% and 107 ± 7.1%.
Turning to `CNC(=C[N+](=O)[O-])NCCSCc1ccc(CN(C)C)o1` [Ranitidine hydrochloride], the growth yield is, setting by setting: (40 h) 100 ± 3.5%; (72 h) 101 ± 2.2%.
For `CCN(CC)CCCC(C)Nc1c2ccc(Cl)cc2nc2ccc(OC)cc12` (stereo not given) [Quinacrine dihydrochloride hydrate] the same measures were 94.4 ± 1.9% and 95.54 ± 0.94%.
With `CCCCCCCCCCCCCCCC[N+](C)(C)CCN(Cc1ccc(OC)cc1)c1ncccn1` [Thonzonium bromide], the growth yield is, setting by setting: (40 h) 0%; (72 h) 0%.
For the compound `C#C[C@]1(O)CC[C@H]2[C@@H]3CCc4cc(OC)ccc4[C@H]3CC[C@@]21C` [Ethynylestradiol 3-methyl ether], the growth yield by setting is: (40 h) 85.5 ± 0.95%; (72 h) 86.1 ± 0.73%.
Consider `CC(C)NCC(O)c1ccc(NS(C)(=O)=O)cc1` (stereo not given) [Sotalol hydrochloride], for which the growth yield (40 h) was 106 ± 3.3% and the growth yield (72 h) amounted to 103 ± 2.1%.
Turning to `CN(CCOc1ccc(NS(C)(=O)=O)cc1)CCc1ccc(NS(C)(=O)=O)cc1` [Dofetilide], the growth yield worked out at 100 ± 5.9% (40 h) and 98.7 ± 4.3% (72 h).
As for `CC(=O)N1CCN(c2ccc(OCC3COC(Cn4ccnc4)(c4ccc(Cl)cc4Cl)O3)cc2)CC1` (stereo not given) [Ketoconazole], the growth yield by setting is: (40 h) 2.22 ± 1.3%; (72 h) 1.68 ± 0.84%.
The like results for `CCn1cc(C(=O)O)c(=O)c2cc(F)c(N3CCN(C)CC3)cc21` [Pefloxacine] were, in that order, 98.2 ± 4.5% and 97.4 ± 5.3%.
For the compound `C[C@@H]1CN(c2c(F)c(N)c3c(=O)c(C(=O)O)cn(C4CC4)c3c2F)C[C@H](C)N1` [Sparfloxacin], the growth yield is 98.3 ± 1.8% (40 h) and 97.7 ± 1.5% (72 h).
As to `C[C@]12C=CC(=O)C=C1CC[C@@H]1[C@@H]2C(=O)C[C@@]2(C)[C@H]1CC[C@]2(O)C(=O)CO` [Prednisone], the growth yield was 105 ± 4.3% (40 h) and 98.1 ± 5.1% (72 h).
Consider `CCn1cc(C(=O)O)c(=O)c2cc(F)c(N3CCNC(C)C3)c(F)c21` (stereo not given) [Lomefloxacin hydrochloride], for which the growth yield (40 h) was determined as 93.9 ± 3% and the growth yield (72 h) was determined as 92.4 ± 1.6%.
With `CS(=O)(=O)Nc1ccc([N+](=O)[O-])cc1Oc1ccccc1` [Nimesulide], the growth yield is 92.1 ± 5.1% (40 h) and 99.7 ± 1.6% (72 h).
The like results for `COc1cc(C)nc(-n2nc(C)cc2OC)n1` [Epirizole] were, in that order, 111 ± 3.8% and 109 ± 3.8%.
Compound `CNC(=C[N+](=O)[O-])NCCSCc1csc(CN(C)C)n1` [Nizatidine] came in with a growth yield (40 h) of 104 ± 1.9% and a growth yield (72 h) of 99 ± 4.8%.
For the compound `CC(C)CN(C[C@@H](O)[C@H](Cc1ccccc1)NC(=O)O[C@H]1CCOC1)S(=O)(=O)c1ccc(N)cc1` [Amprenavir], the growth yield is, setting by setting: (40 h) 106.7 ± 0.95%; (72 h) 108.3 ± 0.52%.
With `CNCCC=C1c2ccccc2CCc2ccccc21` [Nortriptyline hydrochloride], the growth yield by setting is: (40 h) 98.5 ± 2.5%; (72 h) 102.9 ± 0.32%.
In the case of `C[C@H]1[C@H](NC(=O)/C(=N\OC(C)(C)C(=O)O)c2csc(N)n2)C(=O)N1S(=O)(=O)O` [Aztreonam], the growth yield runs as follows: (40 h) 102 ± 1.8%; (72 h) 104 ± 2.6%.
Take `CCc1c2c(nc3ccc(OC(=O)N4CCC(N5CCCCC5)CC4)cc13)-c1cc3c(c(=O)n1C2)COC(=O)[C@]3(O)CC` [Irinotecan hydrochloride trihydrate]: the growth yield was determined as 109.1 ± 0.79% (40 h) and 104.7 ± 0.63% (72 h).
As to `Cc1ccc(/C(=C\CN2CCCC2)c2ccccn2)cc1` [Triprolidine hydrochloride], the growth yield amounted to 100.7 ± 0.32% (40 h) and 103 ± 1.6% (72 h).
Turning to `CC(C)(O/N=C(\C(=O)N[C@@H]1C(=O)N2C(C(=O)[O-])=C(C[n+]3ccccc3)CS[C@H]12)c1csc(N)n1)C(=O)O` [Ceftazidime pentahydrate], the growth yield runs as follows: (40 h) 102%; (72 h) 102 ± 1.1%.
For the compound `Cc1c(Cl)cccc1Nc1ncccc1C(=O)O` [Clonixin Lysinate], the growth yield came out at 88.5 ± 5.6% (40 h) and 87.7 ± 3.4% (72 h).
